Where a chain is given by its changes, count along the chain named. The list shows a part of the results.
T1: RBFOX1 RRM RbFoxmut (Fox-RRM*) (Homo sapiens, UniProt Q9NWB1 109-208, R118D;E147R;N151S;E152T)
T1 sequence: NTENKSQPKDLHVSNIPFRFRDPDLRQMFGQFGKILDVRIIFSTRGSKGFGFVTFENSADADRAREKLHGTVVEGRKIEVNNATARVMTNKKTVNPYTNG

B1: CACGGCC (DNA:RNA)
RNA: GGGAGACCGGAAUUCAGAUUGUCCCACGGCCUUAAAUCCCGUCGUAGCCACCA
DNA 1: CAATCTGAATTCCGGTCTCCC
DNA 2: TGGTGGCTACGACGGGATT
B2: UGUCAAU (DNA:RNA)
RNA: GGGAGACCGGAAUUCAGAUUGUCCUGUCAAUUUAAAUCCCGUCGUAGCCACCA
DNA 1: CAATCTGAATTCCGGTCTCCC
DNA 2: TGGTGGCTACGACGGGATT
B3: CGCUCGU (DNA:RNA)
RNA: B1 RNA with A26G, G28U, G29C, C30G, C31U
DNA 1: CAATCTGAATTCCGGTCTCCC
DNA 2: TGGTGGCTACGACGGGATT
B4: UUCACAU (DNA:RNA)
RNA: B2 RNA with G26U, U27C, C28A, A29C
DNA 1: CAATCTGAATTCCGGTCTCCC
DNA 2: TGGTGGCTACGACGGGATT
B5: UUCCGAG (DNA:RNA)
RNA: B2 RNA with G26U, U27C, A29G, U31G
DNA 1: CAATCTGAATTCCGGTCTCCC
DNA 2: TGGTGGCTACGACGGGATT
B6: UCUGGUA (DNA:RNA)
RNA: B1 RNA with C25U, A26C, C27U, C30U, C31A
DNA 1: CAATCTGAATTCCGGTCTCCC
DNA 2: TGGTGGCTACGACGGGATT
B7: CGCUCCU (DNA:RNA)
RNA: B1 RNA with A26G, G28U, G29C, C31U
DNA 1: CAATCTGAATTCCGGTCTCCC
DNA 2: TGGTGGCTACGACGGGATT
B8: GUCCAUU (DNA:RNA)
RNA: B2 RNA with U25G, G26U, U27C, A30U
DNA 1: CAATCTGAATTCCGGTCTCCC
DNA 2: TGGTGGCTACGACGGGATT
B9: GACUGGU (DNA:RNA)
RNA: B1 RNA with C25G, G28U, C30G, C31U
DNA 1: CAATCTGAATTCCGGTCTCCC
DNA 2: TGGTGGCTACGACGGGATT
B10: UGCCACC (DNA:RNA)
RNA: B2 RNA with U27C, A30C, U31C
DNA 1: CAATCTGAATTCCGGTCTCCC
DNA 2: TGGTGGCTACGACGGGATT
B11: CUUUUGG (DNA:RNA)
RNA: B1 RNA with A26U, C27U, G28U, G29U, C30G, C31G
DNA 1: CAATCTGAATTCCGGTCTCCC
DNA 2: TGGTGGCTACGACGGGATT
B12: ACAGUAA (DNA:RNA)
RNA: B1 RNA with C25A, A26C, C27A, G29U, C30A, C31A
DNA 1: CAATCTGAATTCCGGTCTCCC
DNA 2: TGGTGGCTACGACGGGATT
B13: CUACACU (DNA:RNA)
RNA: B2 RNA with U25C, G26U, U27A, A30C
DNA 1: CAATCTGAATTCCGGTCTCCC
DNA 2: TGGTGGCTACGACGGGATT
B14: GGAGUCG (DNA:RNA)
RNA: B1 RNA with C25G, A26G, C27A, G29U, C31G
DNA 1: CAATCTGAATTCCGGTCTCCC
DNA 2: TGGTGGCTACGACGGGATT
B15: GACAUAC (DNA:RNA)
RNA: B1 RNA with C25G, G28A, G29U, C30A
DNA 1: CAATCTGAATTCCGGTCTCCC
DNA 2: TGGTGGCTACGACGGGATT
B16: UUUUGGG (DNA:RNA)
RNA: B2 RNA with G26U, C28U, A29G, A30G, U31G
DNA 1: CAATCTGAATTCCGGTCTCCC
DNA 2: TGGTGGCTACGACGGGATT
B17: UUCCCGA (DNA:RNA)
RNA: B2 RNA with G26U, U27C, A29C, A30G, U31A
DNA 1: CAATCTGAATTCCGGTCTCCC
DNA 2: TGGTGGCTACGACGGGATT
B18: AAGAGUG (DNA:RNA)
RNA: B1 RNA with C25A, C27G, G28A, C30U, C31G
DNA 1: CAATCTGAATTCCGGTCTCCC
DNA 2: TGGTGGCTACGACGGGATT
B19: CACGGGU (DNA:RNA)
RNA: B1 RNA with C30G, C31U
DNA 1: CAATCTGAATTCCGGTCTCCC
DNA 2: TGGTGGCTACGACGGGATT
B20: UGCACAA (DNA:RNA)
RNA: B2 RNA with U27C, C28A, A29C, U31A
DNA 1: CAATCTGAATTCCGGTCTCCC
DNA 2: TGGTGGCTACGACGGGATT

biological target: T1, RBFOX1 RRM RbFoxmut (Fox-RRM*); test: EMSA; HiTS-Eq, 1 nM pool, 10 min; buffer printed only for the single-RNA assays: 10 mM Tris pH 7.5, 150 mM NaCl, 3.4 mM EDTA, 0.001% NP-40, 30 C; conditions: tags: His6 N-terminal (pET28a); label: 5' 32P
Outline: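 Purified wild-type or mutant RbFox RRM at increasing concentrations was equilibrated with 1 nM of 5′-radiolabelled RNA carrying 7 randomized nucleotides for 10 min in 50 µL. Unbound RNA was separated by 8% native PAGE and sequenced. Relative association constants came from read-count changes of each RNA species compared with the control reaction, normalised to the cognate motif.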

Row | Binder | binding signal
1 | B1 | 0.18 KA relative to UGCAUGU
2 | B2 | 0.0655 KA relative to UGCAUGU
3 | B3 | 0.11 KA relative to UGCAUGU
4 | B4 | 0.0831 KA relative to UGCAUGU
5 | B5 | 0.113 KA relative to UGCAUGU
6 | B6 | 0.147 KA relative to UGCAUGU
7 | B7 | 0.0521 KA relative to UGCAUGU
8 | B8 | 0.0918 KA relative to UGCAUGU
9 | B9 | 0.194 KA relative to UGCAUGU
10 | B10 | 0.0582 KA relative to UGCAUGU
11 | B11 | 0.0792 KA relative to UGCAUGU
12 | B12 | 0.109 KA relative to UGCAUGU
13 | B13 | 0.0536 KA relative to UGCAUGU
14 | B14 | 0.163 KA relative to UGCAUGU
15 | B15 | 0.0893 KA relative to UGCAUGU
16 | B16 | 0.0761 KA relative to UGCAUGU
17 | B17 | 0.0767 KA relative to UGCAUGU
18 | B18 | 0.15 KA relative to UGCAUGU
19 | B19 | 0.11 KA relative to UGCAUGU
20 | B20 | 0.0732 KA relative to UGCAUGU

Source: publication PMC9911399, “Two distinct binding modes provide the RNA-binding protein RbFox with extraordinary sequence specificity”
